Our source for the activity change, negative = inhibition values is PubChem BioAssay AID1745853 (National Center for Advancing Translational Sciences (NCATS), 2022).

The list shows a part of the results. Further columns of the screen follow, without active or inactive calls.

What all share (experiment): Primary Screen for Target Class Profiling of Small Molecule Inhibitors of Methyltransferases
In test [1] the target is Glycine N-methyltransferase (Homo sapiens) (UniProt Q14749). As to conditions: purified enzyme, MTase-Glo SAH luminescence; measured here: GNMT inhibition; at 40 µM; stronger effect = lower value. In outline: (§1)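 Each enzyme was reacted with SAM and its substrate, with compounds tested once at 40 uM; SAH formed was read by MTase-Glo luminescence.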
Test [2] has as its target Guanidinoacetate N-methyltransferase (Homo sapiens) (UniProt Q14353). As to conditions: purified enzyme, MTase-Glo SAH luminescence; measured here: GAMT inhibition; at 40 µM; stronger effect = lower value. In a few lines: as §1
Test [3] addresses Histamine N-methyltransferase (Homo sapiens) (UniProt P50135). As to conditions: purified enzyme, MTase-Glo SAH luminescence; measured here: HNMT inhibition; at 40 µM; stronger effect = lower value. In outline:
as §1

The target in test [4] is Nicotinamide N-methyltransferase (Homo sapiens) (UniProt P40261). As to conditions: purified enzyme, MTase-Glo SAH luminescence; measured here: NNMT inhibition; at 40 µM; stronger effect = lower value. In a few lines: as §1
Test [5] concerns the target Phenylethanolamine N-methyltransferase (Homo sapiens) (UniProt P11086). The settings on record: purified enzyme, MTase-Glo SAH luminescence; measured here: PNMT inhibition; at 40 µM; stronger effect = lower value. In outline:
as §1
% is set by controls: 0 for no effect and ±100 for the full control effect.

Take `C=C(C(=O)O)C1CC(O)C2(C)CCCC(=C)C2C1` (configuration not stated): the activity change, negative = inhibition is -1.26% in test [1]; -5.62% in test [2]; -7.37% in test [3]; -20% in test [4]; -1.5% in test [5].
As to `COc1cccc(CN2C(=O)c3cc4oc(C)cc4n3CC2(C)C(=O)NC2CCCCCC2)c1OC` (configuration not stated), the activity change, negative = inhibition was -0.709% in test [1]; 0% in test [2]; 2.81% in test [3]; -2.17% in test [4]; -1.78% in test [5].
For `COCCN1C(=O)c2cc(-c3ccc(OC)c(OC)c3)nn2CC1(C)C(=O)NC1CCCCC1` (configuration not stated), in that order: 0.767%, 2.8%, 6.42%, 11% and 1.39%.
For `CC(=O)NCCCC(=O)N1CCOC2(CCN(C(=O)NC(C)C)CC2)C1`, in that order: -4.14%, -7.55%, -5.09%, -10.7% and -6.89%.
For `O=C1NCC2(CCN(C(=O)c3ccccc3C3CCNC3)CC2)O1` (configuration not stated), in that order: -3.24%, -5.6%, -3.74%, -14.6% and -6.71%.
Regarding `CC(=O)C1=C(O)C2c3c[nH]c4cccc(c34)CC2C(C)(C)N(C)C1=O` (configuration not stated), the values for the activity change, negative = inhibition in test [1] and in test [3] were 2.43% and 4.43%, respectively.
On to `COc1ccc(NC(=O)CCc2nnc3n(Cc4ccc(F)cc4)c(=O)c4ccccc4n23)cc1`, for which the activity change, negative = inhibition is -9.74% in test [1]; 0.194% in test [2]; -11.6% in test [3]; -8.24% in test [4]; -13% in test [5].
For `O=S(=O)(c1cccc2c(Cl)cccc12)N1CCCNCC1`, in that order: -2.39%, 9.61%, 3.02%, -3.45% and 4.9%.
For `CCc1ccccc1NC(=O)N1CCn2cccc2C1C(C)C` (configuration not stated), in that order: 14.2%, 1.17%, 6.25%, 5.61% and 9.81%.
For `Clc1cccc(-n2nnnc2NCc2ccccc2Oc2ccccn2)c1Cl`, in that order: 2.14%, 3.05%, 6.15%, -22.3% and -6.57%.
In the case of `CCc1ccc(CN2C(=O)c3cc(-c4ccco4)nn3CC2(C)C(=O)NCCC(C)C)cc1` (configuration not stated), the activity change, negative = inhibition in test [1] is -0.193%; in test [2], 2.5%; in test [3], -1.5%; in test [4], 3.21%; in test [5] it was 0.947%.
For the compound `COc1ccc(C(=O)Cn2nc3n(CCc4ccccc4)c(=O)c4ccccc4n3c2=O)cc1`, the activity change, negative = inhibition in test [1] is 3.38%; in test [2], 0%; in test [3], 4.63%; in test [4], -0.01%; in test [5], -2.74%.
For `Cc1nc2ccccn2c1C(=O)NC(C)c1cnn(-c2ccccn2)c1C` (configuration not stated), in that order: -4.01%, -4.5%, -2.99%, -27.7% and -0.356%.
For `CCc1ccc(N2C(=O)c3cc4sccc4n3CC2(C)C(=O)NC2CCCCC2C)cc1` (configuration not stated), in that order: -0.775%, 0%, -1.47%, 0.274% and -7.17%.
In the case of `Clc1ccc2oc([C@H]3CCN(Cc4ccccn4)C3)nc2c1`, the activity change, negative = inhibition is -9.91% in test [1]; -9.72% in test [2]; -10.1% in test [3]; -20.3% in test [4]; -7.27% in test [5].
For `CCCCCNC(=O)c1sc(=S)n2c1[nH]c(=O)c1ccc(C(=O)OC)cc12`, in that order: -38.2%, 0%, 6.88%, -24.5% and -8.08%.
For `C=C1C(=O)O[C@H](CCC)[C@H]1C(=O)O`, in that order: 2.6%, 8.74%, 3.31%, -10.6% and -3.04%.
For `COc1ccc(S(=O)(=O)NCC2Cn3cccc3C(=O)N2Cc2ccccc2)cc1` (configuration not stated), in that order: -15.3%, -5.53%, -2.82%, -7.8% and -5.4%.
As for `Cc1ccc(CN2C(=O)c3ccc(-c4ccccc4)n3CC2(C)C(=O)NC2CCCCC2)cc1` (configuration not stated), the activity change, negative = inhibition turned out to be 6.81% in test [1]; 0.874% in test [2]; 6.33% in test [3]; 4.73% in test [4]; 4.06% in test [5].
For `CC[C@]12C=CCN3CC[C@@]4(c5cc([C@@]6(C(=O)OC)C[C@H]7C[C@@H](C(C)(F)F)CN(Cc8c6[nH]c6ccccc86)C7)c(OC)cc5N(C)[C@H]4[C@@](O)(C(=O)OC)[C@@H]1OC(C)=O)[C@@H]32`, in that order: 3.43%, 11.8%, 7.36%, -4.75% and 2.38%.
On to `COc1ccc(CCNC(=O)CCc2nnc3n(CCC(C)C)c(=O)c4ccccc4n23)cc1OC`, for which the activity change, negative = inhibition is -8.04% in test [1]; 1.97% in test [2]; -1.32% in test [3]; -23.9% in test [4]; -4.79% in test [5].
With `Cc1nc2cc(S(=O)(=O)N3CCOCC3)ccc2n1CCNC(=O)C1CC1`, the activity change, negative = inhibition in test [1] is -4.68%; in test [2], -10%; in test [3], -1.96%; in test [4], -11.9%; in test [5], -9.3%.
For `O=C(NCC1CN(C(=O)c2cnccn2)CC12CCOCC2)N1CCCC1` (configuration not stated), in that order: 2.04%, 1.23%, 2.81%, -2.73% and 0.044%.
For `O=C(NCc1cccc(C(F)(F)F)c1)c1nc2sccn2c1-c1ccccc1`, in that order: -10.5%, -10.1%, -4.69%, -22.8% and -14.6%.
For the compound `Cc1ccc(CN2CCc3nc(C(=O)Nc4cccnc4)oc3CC2)o1`, the activity change, negative = inhibition is -15.4% in test [1]; -11.8% in test [2]; -9.98% in test [3]; -13.9% in test [4]; -8.46% in test [5].
Regarding `CC1(C(=O)NC2CCCCCCC2)Cn2c(cc3occc32)C(=O)N1Cc1ccccc1F` (configuration not stated), the activity change, negative = inhibition in test [1] was 3.77%; in test [2], 0%; in test [3] it was 5.91%; in test [4], 0.241%; in test [5], 0.845%.
For `O=C(Nc1ccccc1)N1CCC(N(C(=O)C2CC2)C2CCOCC2)CC1`, in that order: -6.13%, -14.6%, -4.33%, -14.7% and -6.18%.
For `CC/C=C/C(O)C(O)C1=C(C)C(=O)C2(O1)C(=O)NC(OC)(C(=O)c1ccccc1)C2O` (configuration not stated), in that order: -0.84%, -2.45%, 8.91%, -15.7% and -10.9%.
For `COC(=O)c1ncn2c1C(=O)N(c1cc(C)ccc1C)C(C)(C(=O)NC1CCCCCC1)C2` (configuration not stated), in that order: 5.16%, 1.42%, 0.58%, 10.9% and 2.44%.
As for `O=C(NC1CC1)C1CCc2nnc(-c3cccnc3)n21` (configuration not stated), the activity change, negative = inhibition was -2.36% in test [1]; 0.334% in test [2]; -4.36% in test [3]; -2.76% in test [4]; -3.96% in test [5].
For `CCCC(=O)Nc1cccc(NC(=O)c2ccccc2Br)c1`, in that order: 0.332%, 1.58%, 6.57%, -4.55% and 5.96%.
